# The whole screen tested about 310,000 compounds, of which about 14,000 (4.5%) showed an effect of 50% or more. Effects have a minus sign here. The list shows a part of the results.
# Target: human ether-à-go-go-related gene (hERG) potassium channel (human, UniProt Q12809)
# Assay: primary screen, population patch clamp on CHO cells stably expressing hERG
# 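Note: peak tail current of the secondary pulse compared with the same well before compound.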
# Chain of human ether-à-go-go-related gene (hERG) potassium channel (Q12809 whole entry, looked up): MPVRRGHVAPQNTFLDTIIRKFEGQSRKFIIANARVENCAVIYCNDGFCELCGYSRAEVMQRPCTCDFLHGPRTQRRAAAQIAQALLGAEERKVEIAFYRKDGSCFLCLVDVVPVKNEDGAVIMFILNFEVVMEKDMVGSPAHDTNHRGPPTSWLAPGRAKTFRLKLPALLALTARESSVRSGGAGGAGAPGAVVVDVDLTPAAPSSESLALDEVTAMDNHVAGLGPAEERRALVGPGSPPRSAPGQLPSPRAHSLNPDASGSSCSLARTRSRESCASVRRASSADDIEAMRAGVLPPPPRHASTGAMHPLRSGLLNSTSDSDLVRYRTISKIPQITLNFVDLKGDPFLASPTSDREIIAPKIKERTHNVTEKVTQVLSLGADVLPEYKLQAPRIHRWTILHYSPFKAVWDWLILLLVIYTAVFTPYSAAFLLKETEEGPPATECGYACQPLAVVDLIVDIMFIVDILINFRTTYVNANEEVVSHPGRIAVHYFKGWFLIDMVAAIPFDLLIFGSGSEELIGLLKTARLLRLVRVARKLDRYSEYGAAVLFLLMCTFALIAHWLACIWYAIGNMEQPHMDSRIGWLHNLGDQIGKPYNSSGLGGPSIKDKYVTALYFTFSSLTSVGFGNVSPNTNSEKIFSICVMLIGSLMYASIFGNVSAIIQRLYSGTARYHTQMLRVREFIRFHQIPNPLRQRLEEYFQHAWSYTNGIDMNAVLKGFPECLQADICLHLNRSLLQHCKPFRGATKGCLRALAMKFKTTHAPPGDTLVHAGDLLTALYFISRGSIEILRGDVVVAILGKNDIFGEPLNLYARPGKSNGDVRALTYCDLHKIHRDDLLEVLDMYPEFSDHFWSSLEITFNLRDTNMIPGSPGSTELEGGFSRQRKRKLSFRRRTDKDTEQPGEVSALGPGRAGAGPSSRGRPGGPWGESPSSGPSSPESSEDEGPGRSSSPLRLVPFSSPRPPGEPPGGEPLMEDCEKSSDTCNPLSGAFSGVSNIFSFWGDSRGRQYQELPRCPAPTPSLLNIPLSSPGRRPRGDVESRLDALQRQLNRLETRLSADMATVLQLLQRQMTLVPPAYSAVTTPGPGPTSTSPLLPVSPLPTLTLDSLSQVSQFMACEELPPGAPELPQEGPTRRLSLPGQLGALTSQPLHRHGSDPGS
row,SMILES,"hERG current change (%, negative = inhibition) at 10uM [%]"
1,Cc1cccc(C(=O)NCC(=O)OCc2nnc(-c3ccccc3)o2)c1,-5.96
2,Cc1cc(C)n(CCCNC(=O)Cn2nnnc2CN2C[C@@H](C)O[C@@H](C)C2)n1,6.72
3,COc1ccccc1NC(=O)NCCCl,17
4,CCCOC(=O)Nc1nnc(CCC)s1,-5.41
5,Cc1cc(C)c(NC(=O)Cn2cc3c(n2)CCCC3)c(C)c1,10.4
6,CS/C(N)=N/N=C/c1ccc([N+](=O)[O-])cc1.I,-25.4
7,CCCSc1nnc2n(C)c(=O)c3c4c(sc3n12)CCC4,-71.5
8,Cc1cc(NS(=O)(=O)c2ccc(NC(=O)c3ccco3)cc2)nc(C)n1,3
9,COC(=O)c1c(NC(=O)C2CC=CCC2C(=O)O)sc(C)c1C (stereo not shown),-13.4
10,O=C1NC(c2cccs2)Nc2ccccc21 (stereo not shown),-1.84
11,COc1ccc(CSc2nc(C)[nH]c2[N+](=O)[O-])cc1[N+](=O)[O-],4.63
12,COc1cc(/C=N/NC(=O)CCn2c3ccccc3c3ccccc32)cc(OC)c1OC,6.78
13,CCOCCCNC(=O)c1ccccc1NC(=O)C1=C(C)OCCS1,17.3
14,O=C(NCCC1=CCCCC1)C1CC(=O)N(C2CCCCC2)C1 (stereo not shown),-4.32
15,O=C(COC(=O)Cc1ccc(Cl)cc1Cl)Nc1ccc(OC(F)F)cc1,26.9
16,CC(C)(C)Sc1ccc2nc3c(n2c1)CCCC3.Cl,-25.6
17,CCCC(=O)c1cc(CP(=O)(OCC)OCC)oc1C,12.8
18,Cn1cccc1C(=O)NC1CCCCCC1,4.23
19,O=[N+]([O-])c1ccc2nc(-c3ccc(Cl)cc3)n(OCc3ccccc3)c2c1,13.2
20,COc1cccc(-c2nnc(SCc3nc4ccccc4s3)n2C)c1,-29
21,Cc1cc(C)c(S(=O)(=O)N2CCCOC2CNC(=O)C(=O)NCc2cccs2)c(C)c1 (stereo not shown),-8.31
22,COC/C=C/C1=CC2=CC(=O)C(C)(OC(=O)c3cnc4ccccc4n3)C(=O)C2=CN1c1ccccc1 (stereo not shown),-9.84

row,SMILES,"hERG current change (%, negative = inhibition) at 10uM [%]"
1,O=[N+]([O-])c1ccc(N2CCN(Cc3ccccc3)CC2)s1,-27.1
2,Cc1ccc(O)c(NC(=S)NC(=O)c2ccccc2Cl)c1,13.3
3,CCC(=O)Nc1cccc(Br)c1,12.7
4,Cc1ccc(/C(N)=N/OC(=O)CCC2CCCC2)cc1,-5.25
5,Brc1csc(/C=N/Nc2nc3ccccc3s2)c1,3.78
6,COc1ccccc1NC(=O)c1ccc(S(=O)(=O)N2CCOCC2)cc1,1.89
7,O=C(c1ccco1)N1N=C(c2cccs2)CC1c1ccco1 (stereo not shown),13.8
8,Br.CCn1c2c(c(=N)c3c1CCC3)CCCC2,-2.41
9,NC(=O)[C@@H]1CCCN1C(=O)c1ccc2oc(CCc3ccccc3)nc2c1,3.06
10,O=C(COc1cccc2cccnc12)NNC(=O)Nc1ccccc1,1.8
11,O=C(/C=C/c1ccccc1)NC(=S)N1C[C@H]2C[C@H](C1)c1cccc(=O)n1C2,-15
12,COc1ccc(NC(=O)CSc2c3c(nc4cc(Cl)ccc24)CCCC3)cc1OC,-25
13,O=C(Nc1ccc(S(=O)(=O)Nc2cnc3ccccc3n2)cc1)c1ccc(Cl)cc1Cl,0.829
14,COc1ccccc1N(C)S(=O)(=O)c1ccc(C(=O)Nc2nc(C)cs2)cc1,-8.38
15,CC(OC(=O)CSc1ccc([N+](=O)[O-])cc1)C(=O)NC1CC1 (stereo not shown),-14.7
16,Cc1cc(C)c2oc(C(=O)N3CCN(Cc4ccccc4)CC3)cc(=O)c2c1,-42.9
17,Cc1cc[n+]2n1CC(O)C2.[Cl-] (stereo not shown),9.59
18,Cc1c(C(=O)N2CCCC2)c(S(=O)(=O)NCCc2ccccc2)c(C)n1C,10.1
19,CCC(=O)N1CCc2cc(S(=O)(=O)CCC(=O)O)ccc21,24.6
20,Cc1ccc(NC(=O)N2CCC(NC(=O)c3ccco3)CC2)cc1,4.55
21,Cc1ccc(NC(=O)Nc2nnc(-c3ccccc3F)s2)cc1,10.8
22,COC(=O)c1ccccc1NC(=S)NC(NC(=O)COc1ccccc1)C(Cl)(Cl)Cl (stereo not shown),7.66

row,SMILES,"hERG current change (%, negative = inhibition) at 10uM [%]"
1,O=C(Nc1ccc2ccccc2c1)c1ccc(Br)o1,19.8
2,COc1ccc(N2CCN(C(=O)c3ccc(S(=O)(=O)N4CCOCC4)cc3)CC2)cc1,-9.7
3,Cc1cccc(CCNC(=O)c2cc(=O)[nH]c3ccc(Br)cc23)c1,-0.339
4,CCN(CC)C(=O)COc1ccc2c(c1)C(=O)CC(C)(C)O2,27.7
5,Cc1nc(Nc2ccccc2)c2oc3ccc(Cl)cc3c2n1,7.31
6,CC(=O)Nc1sc(C)c(C)c1C(=O)OCC(=O)Nc1cc(S(=O)(=O)N2CCCCC2)ccc1Cl,8.54
7,COc1ccc2c(C(=O)c3ccc(Cl)cc3)n(CCCC(N)=O)[n+]([O-])c2c1,-55.5
8,COc1cccc(N2CCN(C(=O)CC(NC(=O)c3ccccc3)c3ccccc3)CC2)c1 (stereo not shown),-65
9,COc1cccc(C(C(=O)NCC2CCCO2)N(C(=O)Cn2nnc3ccccc32)c2ccc(NC(C)=O)cc2)c1OC (stereo not shown),6.49
10,CCOC(=O)C1CCCN(C(=O)COC(=O)c2cc(=O)c3ccccc3o2)C1 (stereo not shown),7.13
11,O=C(O)/C(=C\c1cccc(O)c1)c1ccc(S(=O)(=O)N2CCCC2)s1,-9.38
12,CC(Sc1nc(N)cc(=O)[nH]1)C(=O)NNC(=O)c1cccc(Cl)c1 (stereo not shown),0.647
13,O=C(c1ccco1)N1CCN(c2ccccc2F)CC1,-2.71
14,COc1cccc(CN2CCCC(N3CCc4ccccc4C3)C2)c1O (stereo not shown),-17.7
15,Cc1ccc(OCC(=O)N2CCN(C(=O)CCC3CCCC3)CC2)cc1,-54.3
16,O=c1cnc(-c2ccc(Cl)cc2)cn1O,23.2
17,O=C(Nc1ccc2oc(-c3ccncc3)nc2c1)c1ccc([N+](=O)[O-])o1,-11.9
18,O=C(NC1CC1)C1CCN(C2CCN(Cc3ccccc3C(F)(F)F)CC2)CC1,-53.1
19,CC(C)c1ccc(Nc2c([N+](=O)[O-])c(=O)n(C)c3ccccc23)cc1,-21.8
20,O=C(COc1ccc2ccccc2c1)NNC(=O)Nc1ccccc1F,13.5
21,Cc1cc(C(=O)CSc2nc3ccccc3n2CCC#N)c(C)n1Cc1cccs1,2.04
22,CC1CCCC(NC(=O)COC(=O)Cc2ccsc2)C1C (stereo not shown),-7.65

row,SMILES,"hERG current change (%, negative = inhibition) at 10uM [%]"
1,O=c1c2ccccc2oc2nc(-c3cccs3)n(CCc3ccccc3)c(=O)c12,6.84
2,CCn1ncc(NC(=S)Nc2ccc3c(c2)OCO3)c1C(N)=O,37.9
3,COc1ccc(C(=O)Nc2ccc([N+](=O)[O-])cn2)cc1OC,-22.6
4,Cc1cc(N)n(-c2ccc(S(N)(=O)=O)cc2[N+](=O)[O-])n1.O=C(O)C(F)(F)F,23.2
5,CC(C)Cc1nc(N2CCN(C(=O)c3ccco3)CC2)c(C#N)c2c1CCC2,-33.2
6,CCOc1ccc(C(=O)Nc2ccccc2C(=O)O)cc1,8.2
7,COc1ccc2oc(C(=O)OCC(=O)NCC3CCCO3)c(C)c2c1 (stereo not shown),2.35
8,COC(=O)c1ccc(OCC(O)CN2CCN(CC(O)COc3ccc(C(=O)OC)cc3)CC2)cc1 (stereo not shown),-72.9
9,COc1ccc(/C(O)=C2\C(=O)C(=O)N(c3cc(C)on3)C2c2cccc(OC)c2OC)cc1C (stereo not shown),-4.72
10,Cc1ccc(C(=O)O/N=C(\N)c2cccc([N+](=O)[O-])c2)cc1,1.58
11,Cc1ccc(S(=O)(=O)N(CC(=O)N2CCOCC2)c2ccc(C(C)C)cc2)cc1,-34.5
12,CCc1nc(C(N)=O)c2[nH]c(=O)n(-c3ccccc3F)c2n1,11.6
13,COc1ccc(CNC(=O)COc2cc3c(c4oc(=O)cc(C)c24)CCC(C)(C)O3)cc1OC,-31.1
14,CCN(CC)S(=O)(=O)c1ccc2c(c1)c(=O)c(C(=O)N1CCN(c3ccccn3)CC1)cn2C,-15.6
15,CCc1ccccc1N(C(C)=O)c1nc(CCl)cs1,6.77
16,COc1ccc(COC(=O)C2CC(=O)N(Cc3ccc(C)cc3)C2)cc1 (stereo not shown),-58.3
17,CN1CCN(c2ccc(Cl)cc2NC(=O)/C=C/c2ccc(F)cc2)CC1,-75.6
18,CCc1ccc(-c2nc(SCC(=O)N(C)C3CCS(=O)(=O)C3)n[nH]2)cc1 (stereo not shown),2.27
19,CCCCN(C(=O)c1[nH]c(C)c(C(C)=O)c1C)c1c(N)n(CCCC)c(=O)[nH]c1=O,-7.62
20,CCC(=O)c1c[nH]c(C(=O)NCc2cccs2)c1,3.35
21,O=C(CSc1nnc(NC(=O)c2ccccc2)s1)NC1CCCC1,8.09
22,CCOc1cc(CNCc2ccccn2)ccc1OCC(=O)NC(C)(C)C.Cl,-1.89
